# Some of the results follow.
# Tests used:
# Experiment in all cases: glycan array binding signal (z-score within array); higher = stronger binding
# Settings in all cases: glycan notation: IUPAC condensed, linker removed; mutation: E227A
# [1] = molecular target: Neu5Ac(a2-6)GlcNAc(b1-4)GlcNAc
# How it was run: (§1)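 Glycan array data came from 3228 arrays in the Consortium for Functional Glycomics database, and only arrays with an available protein sequence were kept. Glycan names were put into IUPAC-condensed notation, and columns mapping to the same glycan were averaged. The binding signal is a within-array Z-score, averaged across arrays of one protein sequence run at different concentrations or buffers and across linkers. A negative Z-score can be read as non-binding.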
# [2] = molecular target: Neu5Ac(a2-6)GlcNAc(b1-4)GlcNAc(b1-4)GlcNAc
# How it was run: as §1
# [3] = molecular target: Neu5Ac(a2-8)Neu5Ac
# How it was run: as §1
# [4] = molecular target: Neu5Ac(a2-8)Neu5Ac(a2-3)Gal(b1-3)GalNAc(b1-4)[Neu5Ac(a2-3)]Gal(b1-4)Glc
# How it was run: as §1
# [5] = molecular target: Neu5Ac(a2-8)Neu5Ac(a2-3)Gal(b1-3)GalNAc(b1-4)[Neu5Ac(a2-8)Neu5Ac(a2-3)]Gal(b1-4)Glc
# How it was run: as §1
# [6] = molecular target: Neu5Ac(a2-8)Neu5Ac(a2-3)Gal(b1-4)Glc
# How it was run: as §1
# [7] = molecular target: Neu5Ac(a2-8)Neu5Ac(a2-3)Gal(b1-4)GlcNAc
# How it was run: as §1
# [8] = molecular target: Neu5Ac(a2-8)Neu5Ac(a2-3)[Gal(b1-3)GalNAc(b1-4)]Gal(b1-4)Glc
# How it was run: as §1
# [9] = molecular target: Neu5Ac(a2-8)Neu5Ac(a2-3)[GalNAc(b1-4)]Gal(b1-4)Glc
# How it was run: as §1
# [10] = molecular target: Neu5Ac(a2-8)Neu5Ac(a2-8)Neu5Ac
# How it was run: as §1
# [11] = molecular target: Neu5Ac(a2-8)Neu5Ac(a2-8)Neu5Ac(a2-3)Gal(b1-4)Glc
# How it was run: as §1
# [12] = molecular target: Neu5Ac(a2-8)Neu5Ac(a2-8)Neu5Ac(a2-3)[Gal(b1-3)GalNAc(b1-4)]Gal(b1-4)Glc
# How it was run: as §1
# [13] = molecular target: Neu5Ac(a2-8)Neu5Ac(a2-8)Neu5Ac(a2-3)[GalNAc(b1-4)]Gal(b1-4)Glc
# How it was run: as §1
# [14] = molecular target: Neu5Ac(a2-8)Neu5Ac(a2-8)Neu5Ac(a2-8)Neu5Ac(a2-3)[GalNAc(b1-4)]Gal(b1-4)Glc
# How it was run: as §1
# [15] = molecular target: Neu5Ac(a2-8)Neu5Gc(a2-3)Gal(b1-4)GlcNAc
# How it was run: as §1
# [16] = molecular target: Neu5Ac(b2-6)Gal(b1-4)GlcNAc
# How it was run: as §1
# [17] = molecular target: Neu5Ac(b2-6)GalNAc
# How it was run: as §1
# [18] = molecular target: Neu5Ac9Ac(a2-3)Gal(b1-3)GlcNAc
# How it was run: as §1
# [19] = molecular target: Neu5Ac9Ac(a2-3)Gal(b1-4)GlcNAc
# How it was run: as §1
# [20] = molecular target: Neu5Ac9Ac(a2-6)Gal(b1-4)GlcNAc
# How it was run: as §1
# [21] = molecular target: Neu5Gc(a2-3)Gal(b1-3)GlcNAc
# How it was run: as §1
# [22] = molecular target: Neu5Gc(a2-3)Gal(b1-3)[Fuc(a1-4)]GlcNAc
# How it was run: as §1
# [23] = molecular target: Neu5Gc(a2-3)Gal(b1-4)Glc
# How it was run: as §1
# [24] = molecular target: Neu5Gc(a2-3)Gal(b1-4)GlcNAc
# How it was run: as §1
# [25] = molecular target: Neu5Gc(a2-3)Gal(b1-4)GlcNAc(b1-3)Gal(b1-4)GlcNAc(b1-2)Man(a1-3)[Neu5Gc(a2-3)Gal(b1-4)GlcNAc(b1-3)Gal(b1-4)GlcNAc(b1-2)Man(a1-6)]Man(b1-4)GlcNAc(b1-4)GlcNAc
# How it was run: as §1
# [26] = molecular target: Neu5Gc(a2-3)Gal(b1-4)[Fuc(a1-3)]GlcNAc
# How it was run: as §1
# [27] = molecular target: Neu5Gc(a2-6)Gal(b1-4)GlcNAc
# How it was run: as §1
# [28] = molecular target: Neu5Gc(a2-6)GalNAc
# How it was run: as §1
# [29] = molecular target: Neu5Gc(a2-8)Neu5Ac(a2-3)Gal(b1-4)GlcNAc
# How it was run: as §1
# [30] = molecular target: Neu5Gc(a2-8)Neu5Gc(a2-3)Gal(b1-4)GlcNAc
# How it was run: as §1
binder,measurement,setting,value
"Epa1-NP-mutant-E227A (Candida glabrata), Q6VBJ0 (protein) MILNPALFLNKCVCIYTTLILLLLTNGGYATSSNDISLASKDPTTFPLGCSPDITTPKKGLSMELYSYDFRKKGSYPCWDAAYLDPNYPRTGYKSHRLLAKVDGVTGNINFYYHATKGCTPQLGHLPASYNYPKPLTMTNFTMLLYGYFRPKVTGFHTFTISADDLLFVNFGAGNAFDCCRRDSSADHFGNYQAYAIWGSKTAKDELTVHLDAGVYYPIRLFYNNRAYDGALSFTFKTESNENTVSDFSEYFFSLDDTEEGCPGLISYDSSCASVKTSKIIGIDYHTETPNENLVPITKTIYHLGIPCTGTTTTPLCGSGFYDPLANKCVTINTSSTSSVTKTTSHTTSKEVSFHSSISSQKTLIPKSIPSPYGPIKSQSIPTEMETSSEISSSEYAFSDVISTPSHSPYTKKHSSLNSSSYTSTVIHSLTSYSISQGIFSTSLSEQNITSKSSTDKFSTATSMSNNITQSSIIISQFSTNNENYTTTSMHTSSDKISTETLNNSISTTTSILFSNSSTILKNNTTIISSDKDTHYHPVNPTIVCSTNKTEIICASITQPSISNSNNHWSSSVLKFNSTTVRSTLPSSAGSNETSINVPFSSSTESNTSTSSTSTSNSKMVRSTLPSSAGSNETSISVPFSSSTESNTSTSSTSTSNSKMVRSTLPSSAGSNETSINVPFSSSTESNTSTSSTSTSNSKTVRSTPFSSAGIIMTSLSQRNNKSASSYASSNSKCYNTADSCRKVHSTPSYLLTSSYTSEGVDYDCSLVSTKLKINDTNCVNNKHTTKSCLKTSVTTTIPTLEIKTARKSSSNTIGLHSYPTSSPNKSISSAPIIGYISSFKTIKTASPSYQTSDLTTITTITSLNNPGSTAVENTHESNDKSRKTSSNDISSKHSVIKETKDAVESSNKSHQTNTLKCSSIIIASSSHNSYESLGGTTLTLTLSKVYSPQNNDTLPFLEISEVNPSRTVLPESSKMMQYLTSTEERNKTARNTIATNIVSISTFHFEGEGNAIRMGYTQLLLMLIGIIVMNIGT",glycan array binding signal (z-score),[1],-0.214
same,glycan array binding signal (z-score),[2],-0.216
same,glycan array binding signal (z-score),[3],-0.293
same,glycan array binding signal (z-score),[4],-0.194
same,glycan array binding signal (z-score),[5],-0.168
same,glycan array binding signal (z-score),[6],-0.193
same,glycan array binding signal (z-score),[7],-0.188
same,glycan array binding signal (z-score),[8],0.41
same,glycan array binding signal (z-score),[9],-0.211
same,glycan array binding signal (z-score),[10],-0.204
same,glycan array binding signal (z-score),[11],-0.199
same,glycan array binding signal (z-score),[12],-0.194
same,glycan array binding signal (z-score),[13],-0.146
same,glycan array binding signal (z-score),[14],-0.202
same,glycan array binding signal (z-score),[15],-0.203
same,glycan array binding signal (z-score),[16],-0.228
same,glycan array binding signal (z-score),[17],-0.203
same,glycan array binding signal (z-score),[18],-0.215
same,glycan array binding signal (z-score),[19],-0.209
same,glycan array binding signal (z-score),[20],-0.209
same,glycan array binding signal (z-score),[21],-0.2
same,glycan array binding signal (z-score),[22],-0.208
same,glycan array binding signal (z-score),[23],-0.165
same,glycan array binding signal (z-score),[24],-0.188
same,glycan array binding signal (z-score),[25],-0.178
same,glycan array binding signal (z-score),[26],-0.144
same,glycan array binding signal (z-score),[27],-0.195
same,glycan array binding signal (z-score),[28],-0.162
same,glycan array binding signal (z-score),[29],-0.189
same,glycan array binding signal (z-score),[30],-0.182
